According to PubChem BioAssay AID662 (National Center for Advancing Translational Sciences (NCATS), 2007):
In all, about 71,000 compounds went through this assay and about 1,800 (2.5%) were called active. The inconclusive results got no clear call from the source; some entries with a clear call stand among them for comparison. Calls follow the shape of the dose curve; as a rule, active = well fitted activation curve with a large enough effect in the signal ratio, with a control signal flat (not every such curve was filed as active); inconclusive = small, poorly fitted or top-dose-only effect, or effect the other way, or a change in a side signal; inactive = flat fitted curve, though single readings scatter; the % refers to the signal ratio. Potencies of inconclusive entries are doubtful fits and often do not repeat.

Assay: Cell signaling CRE-BLA (Fsk stim); as to activity change, negative = inhibition: % of control where 0% means no effect
Details: CHO CRE-bla reporter (cAMP response element driving beta-lactamase), forskolin EC10, beta-lactamase ratio; activity change, negative = inhibition: at 38.2 µM (top of the series) unless noted
In short: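 Forskolin analogue NKH 477 at EC10 stimulated CRE-driven beta-lactamase in CHO cells alongside compound dilution series. Beta-lactamase was measured with CCF4, excitation 405 nm, emission ratio 460/530 nm.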
Potency is read from the fitted curve at half-maximal effect; tags tell the direction and shape of the fitted curve.

| SMILES | activity change, negative = inhibition | Potency |
| --- | --- | --- |
| O=C(CN(Cc1ccc2c(c1)OCO2)C(=O)CNS(=O)(=O)c1ccccc1)NCc1ccco1 | inactive |  |
| O=C(CN1C(=O)c2ccccc2S1(=O)=O)N1CCN(c2cccc(Cl)c2)CC1 | inconclusive: -11.3% |  |
| CN(C)CC(=O)Nc1cc(C(F)(F)F)ccc1Cl | inconclusive: -9.86% |  |
| CN(Cc1ccccc1)c1nc2c(c(=O)n(C)c(=O)n2C)n1CCCc1ccccc1 | inactive |  |
| COc1nc(NCc2cccnc2)nc(OC)n1 | inconclusive: 29.1% |  |
| Cc1ccc(CNC(=O)CS(=O)Cc2nc(-c3cccs3)oc2C)cc1 (stereo not drawn) | inactive |  |
| COc1ccc(-c2cc3ccccc3n2CC(O)CN2CCOCC2)cc1 (stereo not drawn) |  | inconclusive: 5.01 µM [rising, single point] |
| COc1cc2nc(N3CCN(C(=O)[C@H]4COc5ccccc5O4)CC3)nc(N)c2cc1OC | inconclusive: 21.6% |  |
| CCCCCC[C@@H]([C@@H](C)O)n1cnc2c(N)ncnc21 | inconclusive: -3.35% |  |
| O=C(NCC1CCCO1)c1cc(-c2ccco2)nc2ccccc12 (stereo not drawn) | inactive |  |
| CCOC(=O)C1=C(CNCCc2ccc(Cl)cc2)NC(=O)NC1c1ccc2c(c1)OCO2 (stereo not drawn) |  | inconclusive: 5.01 µM [rising, partial curve] |
| O=C(Cn1cccc1C(=O)c1ccccc1)NCCN1CCCCCC1 | inconclusive: -18.2% |  |
| COc1cccc(Cn2c(=O)c(-c3cccs3)nc3cnc(N4CCNCC4)nc32)c1 |  | inconclusive: 0.316 µM [rising, full curve] |
| c1ccc(-c2c3ccccc3nc3[nH]c4ccccc4c23)cc1 |  | inconclusive: 7.94 µM [rising, partial curve] |
| COc1ccccc1CNc1cc(-c2c(C)noc2C)ncn1 |  | inconclusive: 20 µM [rising, single point] |
| COc1ccc(C)cc1-n1c(-c2ccncc2)n[nH]c1=S | inactive |  |
| Cc1cccc(-c2nnc(SCC#N)n2-c2cccc(Cl)c2)c1 |  | inconclusive: 12.6 µM [rising, single point] |
| Cc1noc(C)c1-c1nc(N(C)C)c2ccccc2n1 | inconclusive: 12.9% |  |
| COc1ccccc1CNC(=O)C1CCN(Cc2nc(-c3cccc(Cl)c3)oc2C)CC1 | inconclusive: -6.66% |  |
| CCOC(=O)Cc1csc(SCc2nc3ccccc3c(=O)[nH]2)n1 | inconclusive: 21.8% |  |
| COC(=O)c1cc(CSc2nnc(-c3ccccc3)c(-c3ccccc3)n2)oc1C |  | inconclusive: 5.01 µM [rising, partial curve] |
| Cc1nc(=O)c(-c2ccccc2)c(C)n1-c1ccccc1O | inactive |  |
| CC(C)CC(NC(=O)C1CCC(C)CC1)C(=O)Nc1cccnc1 (stereo not drawn) | inconclusive: 3.56% |  |
| COc1cccc(CNc2nc3ccccc3n2CCN2CCCCC2)c1OC |  | active: 10 µM |
| CCNc1nc(CC)nc2c1oc1ccccc12 |  | active: 7.94 µM |
| COCC(=O)N(CCc1ccc(OC)c(OC)c1)Cc1nc2ccccc2c(=O)[nH]1 |  | inconclusive: 10 µM [rising, partial curve] |
| O=C(NCc1ccc2c(c1)OCO2)c1nn(-c2ccccc2)c(=O)c2ccccc12 |  | inconclusive: 12.6 µM [rising, single point] |

| SMILES | activity change, negative = inhibition | Potency |
| --- | --- | --- |
| COc1ccc(S(=O)(=O)c2ccc(OC)c(OC)c2)cc1OC |  | active: 10 µM |
| CN(C)c1cccc(O)c1 | inactive |  |
| CC1(C)S[C@@H]2[C@H](NC(=O)Cc3ccccc3)C(=O)N2[C@@H]1C(=O)O | inactive: -0.0469% [at 7.6 µM] |  |
| COc1ccc2sc(N3C(=O)C4CC=C(C)CC4C3=O)nc2c1 (stereo not drawn) | inactive |  |
| Cc1noc(C)c1COC(=O)c1ccc2c(c1)S(=O)(=O)c1ccccc1C2=O |  | active: 2 µM |
| c1coc(C2Nc3ccccc3-c3nc4ccccc4n32)c1 (stereo not drawn) |  | inconclusive: 12.6 µM [rising, partial curve] |
| COc1ccc(S(=O)(=O)N2CCN(CC(=O)Nc3cccc(F)c3)CC2)cc1 | inconclusive: -14.2% |  |
| CCNC(=O)c1c(C)nc2ccccn12 | inactive |  |
| COc1cc(C2c3c(oc4c(C)cc(C)cc4c3=O)C(=O)N2Cc2cccnc2)cc(OC)c1OC (stereo not drawn) | inconclusive: 15.3% |  |
| CCOc1cc2[nH]c(=S)n(CCCC(=O)NCc3ccco3)c(=O)c2cc1OCC |  | inconclusive: 0.1 µM [rising, full curve, poor fit] |
| c1ccc2oc(-c3nn4c(Cn5cnc6ccccc65)nnc4s3)cc2c1 |  | inconclusive: 7.94 µM [falling, partial curve] |
| COc1ccc(-c2nnc(SCC(=O)Nc3cccc(Cl)c3)o2)cc1 | inactive |  |
| CCOC(=O)c1nc(-c2ccc3c(c2)OCO3)[nH]c1C |  | inconclusive: 10 µM [rising, partial curve] |
| O=C1OCCC1N1C(=O)c2ccccc2S1(=O)=O (stereo not drawn) | inactive |  |
| CC(NC(=O)c1ccco1)C(c1cccs1)N1CCN(c2ccccc2F)CC1 (stereo not drawn) |  | inconclusive: 25.1 µM [rising, single point] |
| Cc1onc(-c2ccccc2Cl)c1C(=O)N1CCN(c2cccc(Cl)c2)CC1 |  | inconclusive: 10 µM [rising, single point] |
| COc1ccc(C2=[N+]([O-])C(C)(C)N(O)C2(C)C)cc1 | inactive |  |
| Cn1nc(C(=O)N2CCN(S(=O)(=O)c3ccccc3)CC2)c2ccccc2c1=O | inconclusive: 14.7% |  |
| CCOC(=O)NC1(NC2CCCCC2)Oc2ccccc2O1 | inconclusive: -10.6% |  |
| O=c1c(-c2ccccc2)nc2cnc(Nc3ccccc3)nc2n1Cc1cccs1 |  | inconclusive: 1.26 µM [rising, full curve] |
| N#CCCn1c(=O)cnc2cnc(Nc3ccccc3)nc21 | inconclusive: 29.9% |  |
| Brc1ccccc1C1=Nn2c(nnc2-c2ccccc2)SC1 | inactive |  |
| O=C(c1ccncc1)N1CCN(C(=O)c2ccco2)CC1 | inactive |  |
| CCOC(=O)C1=C(N)n2c(s/c(=C/c3ccco3)c2=O)=C(C(=O)OC)C1c1ccco1 (stereo not drawn) |  | inconclusive: 3.16 µM [rising, partial curve] |
| COc1ccc2[nH]c3nc(SC(C)C)nnc3c2c1 | inconclusive: 25.3% |  |
| Cc1cc(-c2nc3ccccc3o2)c2ccccc2n1 |  | inconclusive: 10 µM [rising, partial curve] |
